According to PubChem BioAssay AID686979 (National Center for Advancing Translational Sciences (NCATS), 2013):
About 50,000 (12%) of roughly 420,000 compounds were called active. Inconclusive results, whose numbers are uncertain, are shown with a selection of clear calls. Calls follow the shape of the dose curve; as a rule, active = well fitted inhibition curve with a large enough effect; inconclusive = small, poorly fitted or top-dose-only effect; inactive = flat fitted curve, though single readings scatter. Potencies of inconclusive entries are left out as doubtful fits.

Experiment: qHTS for Inhibitors of human tyrosyl-DNA phosphodiesterase 1 (TDP1): qHTS in cells in presence of CPT; also: nearly all actives have a fitted effect of over 55% in size
Conditions: chicken DT40 Tdp1-/-;hTDP1 cells + 20 nM CPT, ATP luminescence, 48 h; activity change, negative = growth inhibition: at 46.2 µM (top of the series) unless noted
Summary of the method: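 Chicken DT40 Tdp1-/- cells stably complemented with human TDP1 were seeded at 400 cells/well in medium containing 20 nM camptothecin, exposed to pin-transferred compounds, and grown at 37 °C for at least 48 hr. Viability was read as ATP luminescence.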
% is scaled to controls: 0 for no effect and ±100 for the full control effect; potency is read from the fitted curve at half-maximal effect; tags tell the direction and shape of the fitted curve.

Q: Which Potency does the source give for Cc1ccc2c(c1)cc(CN(Cc1ccco1)C(=O)N1CCOCC1)c1nnnn12 here?
A: Its Potency is inconclusive [inhibitor, single point].

Q: Which Potency does the source give for CCCOc1ccc(CNC(=O)CN2C(=O)c3cccnc3Oc3ccc(C)cc32)cc1 here?
A: Its Potency is active: 23.1 µM.

Q: With COc1ccc(-c2nc(CS(=O)(=O)CC(=O)Nc3cccc(C(C)=O)c3)c(C)o2)cc1 as the compound, how does the Potency read?
A: Its Potency is inconclusive [inhibitor, single point].

Q: With COCC(=O)Nc1cc(C(=O)N2CCC(c3ccccc3)CC2)cc2nc(-c3ccccc3)n(C)c12 as the compound, how does the Potency read?
A: The Potency was active: 16.4 µM.

Q: For COc1ccc(C(=O)c2ccccc2)c(O)c1O, which Potency is on record?
A: Its Potency is inconclusive [inhibitor, single point].

Q: Which Potency does the source give for CN(C)c1ccc(NC(=O)C2CCCN(S(=O)(=O)c3ccccc3)C2)cc1 (configuration not stated) here?
A: Its Potency is active: 14.6 µM.

Q: For CCC(C)Sc1ccc([C@H]2N[C@@](C)(C(=O)OC)[C@H]3C(=O)N(CC)C(=O)[C@@H]23)cc1OC (some centres not stated), which Potency is on record?
A: Its Potency is inconclusive [inhibitor, single point].

Q: With Cc1cc(OC(=O)C(c2ccccc2)c2ccccc2)c([N+](=O)[O-])c(=O)[nH]1 as the compound, how does the “activity change, negative = growth inhibition” value read?
A: The value was inactive: -2.34%.

Q: For CC(=O)Nc1ccc(C)c(NS(=O)(=O)c2cccc(C(F)(F)F)c2)c1, which “activity change, negative = growth inhibition” value is on record?
A: Its value is inactive: 6.62%.

Q: With CCOC(=O)c1c(NC(=O)COc2ccc3ccc(=O)oc3c2)sc(C(=O)N(C)C)c1C as the compound, how does the Potency read?
A: The Potency was inconclusive [inhibitor, single point].

Q: With COc1ccc(CNC(=O)CN(C(=O)c2csnn2)c2ccccc2F)cc1 as the compound, how does the “activity change, negative = growth inhibition” value read?
A: The value was inactive: -3.76%.

Q: Which “activity change, negative = growth inhibition” value does the source give for O=C(CSc1nnc(NC(=O)C2CC2)s1)Nc1ccc(F)cc1F here?
A: The value was inactive: -2.19%.

Q: With C=Cc1cnc([N+](=O)[O-])n1C as the compound, how does the Potency read?
A: Its Potency is inconclusive [inhibitor, partial curve, poor fit].

Q: With CN(C)S(=O)(=O)N1CCc2ccc(NC(=O)c3ccc(C(F)(F)F)cc3)cc2C1 as the compound, how does the Potency read?
A: The Potency was active: 16.4 µM.

Q: Which “activity change, negative = growth inhibition” value does the source give for COc1cc(OC)c(OC)cc1CNCCCSc1nnnn1C here?
A: Its value is inactive: -1.98%.

Q: Which Potency does the source give for Cn1c(N)c(-c2ccccc2)c2ccc([N+](=O)[O-])cc2c1=O here?
A: Its Potency is inconclusive [inhibitor, single point].

Q: Which Potency does the source give for CCOC(=O)c1ccc(NS(=O)(=O)c2ccc3c(c2)oc(=O)n3C)cc1 here?
A: The Potency was active: 3.66 µM.

Q: Which “activity change, negative = growth inhibition” value does the source give for O=C(O)Cc1cn(Cc2cccc(Cl)c2)c2ccccc12 here?
A: Its value is inactive: 0.875%.

Q: With O=C(O)c1n[nH]c2c1CC(C1CCCCC1)CC2 (configuration not stated) as the compound, how does the “activity change, negative = growth inhibition” value read?
A: Its value is inactive: -23.4%.

Q: Which Potency does the source give for CC(=O)c1cccc(-c2ccnc3c2CC(C(=O)NCc2ccccc2)O3)c1 (configuration not stated) here?
A: The Potency was active: 0.731 µM.

Q: For CCOc1ccc2oc(=O)cc(CN3CCN(c4ccccc4OC)CC3)c2c1, which Potency is on record?
A: Its Potency is inconclusive [inhibitor, single point].

Q: For Cc1ccc(C2(c3ccccc3)NC(=O)N(CC(=O)NCc3ccccc3)C2=O)cc1C (configuration not stated), which Potency is on record?
A: Its Potency is inconclusive [inhibitor, single point].

Q: Which Potency does the source give for CC(=O)N1CCC2(CCCN(c3ccccn3)C2)CC1 here?
A: Its Potency is inconclusive [inhibitor, single point].

Q: Which Potency does the source give for COc1ccccc1NC(=S)N/N=C/c1ccc(O)cc1 here?
A: The Potency was active: 7.31 µM.

Q: For C=C(C)[C@@H]1CC=C(CN2CCC(CCOC)(C(=O)OCC)CC2)CC1, which Potency is on record?
A: Its Potency is inconclusive [inhibitor, single point].

Q: For N#C[C@H](Cc1ccc(O)cc1)c1ccc(O)cc1, which “activity change, negative = growth inhibition” value is on record?
A: Its value is inactive: -11.6%.

Q: For CCn1ccc(C(=O)Nc2sc3c(c2C(=O)OC)CCC3)n1, which Potency is on record?
A: The Potency was inconclusive [inhibitor, single point].

Q: For Cc1ccc2cccc(S(=O)(=O)N3CCCc4ccccc43)c2n1, which Potency is on record?
A: The Potency was inconclusive [inhibitor, single point].

Q: For COc1ccc(C(=O)N(Cc2cc(OC)c(OC)c(OC)c2)C2CCS(=O)(=O)C2)cc1Cl (configuration not stated), which “activity change, negative = growth inhibition” value is on record?
A: Its value is inactive: -11%.

Q: For Cc1ccc(-c2cc(C(F)F)nc(NCc3cccnc3)n2)cc1, which Potency is on record?
A: Its Potency is inconclusive [inhibitor, single point].

Q: For FC(F)(F)c1ccccc1-c1nc(NC2CCNCC2)c2ccccc2n1, which Potency is on record?
A: Its Potency is active: 14.6 µM.

Q: Which “activity change, negative = growth inhibition” value does the source give for CC(C)[C@H](CO)Nc1nc(Nc2ccc(C(=O)O)c(Cl)c2)c2ncn(C(C)C)c2n1 here?
A: The value was inactive: 4.19%.

Q: Which Potency does the source give for O=C1N/C(=C/c2cccn2-c2ccccc2)C(=O)N1Cc1ccccc1F here?
A: Its Potency is inconclusive [inhibitor, single point].

Q: For Cc1ccc(CSc2nc(-c3ccccc3C)nc3c2Cc2c(CO)cnc(C)c2O3)cc1, which Potency is on record?
A: The Potency was inconclusive [inhibitor, single point].

Q: For CC(C)(Oc1ccc(Cl)cc1)C(=O)NC1CC1, which “activity change, negative = growth inhibition” value is on record?
A: Its value is inactive: -27.2%.

Q: Which Potency does the source give for O=C(CCc1ccc(S(=O)(=O)N2CCOCC2)cc1)N/N=C/c1ccc(O)c(O)c1O here?
A: Its Potency is inconclusive [inhibitor, single point].

Q: With O=S(=O)(Nc1cccc(Cl)c1)c1ccc2oc(=S)[nH]c2c1 as the compound, how does the “activity change, negative = growth inhibition” value read?
A: Its value is inactive: -0.268%.

Q: For CCCCn1c(=N)n(CCOc2ccccc2OC)c2ccccc21, which Potency is on record?
A: Its Potency is active: 2.91 µM.

Q: Which Potency does the source give for CCCS(=O)(=O)c1nc(S(=O)(=O)c2ccc(C)cc2)c(N2CCCC(C)C2)s1 (configuration not stated) here?
A: The Potency was inconclusive [inhibitor, single point].

Q: With CC(C)c1ccc(CNc2n[nH]c(-c3ccco3)n2)cc1 as the compound, how does the Potency read?
A: The Potency was inconclusive [inhibitor, partial curve, poor fit].

Q: Which “activity change, negative = growth inhibition” value does the source give for COCCNC(=O)C1=CC(c2ccc3c(c2)OCO3)=NS(=O)(=O)N1C here?
A: Its value is inactive: 0.0432%.

Q: Which Potency does the source give for Cc1cc2nc(CCN(C(=S)NCC(C)C)C3CCCC3)[nH]c2cc1C here?
A: The Potency was inconclusive [inhibitor, single point].

Q: Which Potency does the source give for CC(C)Oc1ccc(CNC(=O)Cn2nc(N3CCN(c4ccccc4)CC3)ccc2=O)cc1 here?
A: The Potency was inconclusive [inhibitor, single point].

Q: For CCn1c2ccccc2c2cc(NC(=O)c3cccc(OC)c3)ccc21, which Potency is on record?
A: The Potency was active: 8.91 µM.

Q: For CCOc1ccc(-c2nc(SCC(=O)Nc3cc(F)ccc3F)n3[nH]c(=O)cc3n2)cc1, which “activity change, negative = growth inhibition” value is on record?
A: The value was inactive: -4.39%.

Q: For Cc1ccc(CNc2nc(NCC3CC3)nc3ccsc23)c(C)c1, which Potency is on record?
A: Its Potency is active: 9.2 µM.

Q: Which Potency does the source give for COc1ccc(-c2ccc(=O)n(CC(=O)Nc3ccc(OC)c(OC)c3)n2)cc1 here?
A: Its Potency is inconclusive [inhibitor, partial curve, poor fit].
